Values joined by “and” are separate entries in the source; they are usually repeats but may differ in a detail not shown here. Equal entries are not always repeated. Screen size: about 360,000 compounds; about 2,600 (0.72%) were called active. This list was built around the results that the source calls inconclusive (neither active nor inactive); the mix of calls is not that of the screen. The call rests on the fitted dose curve; in most records, active means well fitted inhibition curve with a large enough effect; inconclusive means small, poorly fitted or top-dose-only effect; inactive means no such curve, though single readings can be large or run the other way. A potency beside an inconclusive call is a rough fit, not a confirmed value.
Test: Primary qHTS for Inhibitors of ATXN expression; further: nearly all actives have a fitted effect of over 55% in size
Conditions: HEK-293 ATXN2-luciferase reporter, luminescence, 24 h; activity change, negative = inhibition: at 57 µM (top of the series)
Outline: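 ATXN2-luciferase reporter cells (luciferase flanked by upstream and downstream ATXN2 gene portions) were treated 24 h at 37 °C with compounds at up to 57 uM. SteadyGlo luminescence gave expression; GF-AFC fluorescence gave viability.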
On the % scale 0 is the no-effect control and ±100 the full control effect; potency means the concentration at half of the fitted maximal effect; tags describe the fitted curve by direction and shape.

**Q.** Which Potency does the source give for `COc1ccc(Nc2ncc(C(=O)N3CCN(c4ccc(F)cc4)CC3)c3ccccc23)cc1` here?
**A.** Its Potency is inconclusive: 39.8 µM [inhibitor, single point].

**Q.** Which Potency does the source give for `COc1ccc(CNS(=O)(=O)c2ccc(-c3cnc(C4CC4)o3)cc2)cc1` here?
**A.** Its Potency is inconclusive: 44.7 µM [inhibitor, partial curve, poor fit].

**Q.** With `CC(C)CC(=O)N1CCN(S(=O)(=O)c2ccc(Cl)cc2)CC1` as the molecule, how does the activity change, negative = inhibition read?
**A.** The activity change, negative = inhibition was inconclusive: -40% [inhibitor].

**Q.** With `O=C(NCC1CC1)c1ccc2c3n(nc2c1)-c1ccc(Cl)cc1CO3` as the molecule, how does the Potency read?
**A.** Its Potency is “inactive”.

**Q.** With `CC(C)C(=O)Nc1ncc(Cc2ccccc2Cl)s1` as the molecule, how does the Potency read?
**A.** Its Potency is “inactive”.

**Q.** With `CC1(C)Cc2cccc(OCC(=O)N3CCN(c4cccc(C(F)(F)F)c4)CC3)c2O1` as the molecule, how does the Potency read?
**A.** Its Potency is “inactive”.

**Q.** Which Potency does the source give for `O=C(Nc1ccccn1)c1nc(-c2ccccc2)n(-c2ccccc2)n1` here?
**A.** Its Potency is “inactive”.

**Q.** With `CCOc1ccc(CCN2C(=S)N([C@@H](CC(C)C)CN3CCC[C@@H]3CN3C(=S)NC[C@@H]3Cc3ccc(O)cc3)C[C@@H]2Cc2ccc(O)cc2)cc1` as the molecule, how does the Potency read?
**A.** The Potency was inconclusive: 25.1 µM [inhibitor, single point].

**Q.** For `CCCCN1C(C(=O)c2ccccc2)=C(OC(C)=O)c2ccccc2S1(=O)=O`, which Potency is on record?
**A.** The Potency was inconclusive: 25.1 µM [inhibitor, partial curve].

**Q.** Which Potency does the source give for `Cc1ccc2nc(-c3cccc(N)c3)oc2c1` here?
**A.** The Potency was “inactive”.

**Q.** For `CCOc1ccc(C(CN2CCOCC2)C(C)=O)cc1OC` (stereo not given), which Potency is on record?
**A.** Its Potency is inconclusive: 39.8 µM [inhibitor, single point].

**Q.** Which Potency does the source give for `COC(=O)c1ccc(NC(=O)c2ccccc2NS(C)(=O)=O)cc1` here?
**A.** The Potency was “inactive”.

**Q.** With `CC1=C(c2ccc(C)c(C)c2)S(=O)(=O)N(Cc2ccc(C(=O)NC(C)c3ccccc3)cc2)C1=O` (stereo not given) as the molecule, how does the Potency read?
**A.** The Potency was “inactive”.

**Q.** For `CC(C)C(NC(=O)c1ccccc1Br)c1ccccc1` (stereo not given), which Potency is on record?
**A.** Its Potency is “inactive”.

**Q.** With `CC(C)(C)OC(=O)NCCCCCc1cn([C@@H](CO)C(=O)NCCCCCCCCCCC(=O)N2CCN(C(=O)OC(C)(C)C)CC2)nn1` as the molecule, how does the Potency read?
**A.** Its Potency is active: 15.8 µM.

**Q.** For `NC(=O)c1ccc2[nH]ccc2c1`, which Potency is on record?
**A.** Its Potency is “inactive”.

**Q.** For `Cc1cc(C)cc(C(=O)NCC(=O)N2CCN(c3cccc(Cl)c3)CC2)c1`, which Potency is on record?
**A.** Its Potency is inconclusive: 12.6 µM [inhibitor, partial curve].

**Q.** With `CCCOc1ccc(F)cc1-c1cc(C(=O)NCc2cccs2)[nH]n1` as the molecule, how does the Potency read?
**A.** Its Potency is inconclusive: 0.891 µM [inhibitor, full curve, poor fit].

**Q.** Which Potency does the source give for `CCCCCOC(=O)C1=C(C)Nc2nnnn2C1c1ccccc1Cl` (stereo not given) here?
**A.** The Potency was “inactive”.

**Q.** For `CCN(c1ccccc1)S(=O)(=O)c1ccc(C(=O)N(CCCN(C)C)c2nc3cc4c(cc3s2)OCO4)cc1`, which Potency is on record?
**A.** The Potency was inconclusive: 28.2 µM [inhibitor, single point].

**Q.** For `CCCCCc1c(-c2cccc(OC)c2)ncn1CCc1ccccc1OC`, which Potency is on record?
**A.** Its Potency is inconclusive: 28.2 µM [inhibitor, partial curve].

**Q.** For `CC(C)C(=O)OC/C(O)=C(\C#N)c1nc2ccccc2[nH]1`, which Potency is on record?
**A.** The Potency was inconclusive: 39.8 µM [inhibitor, single point].

**Q.** Which Potency does the source give for `CC(=O)NCCC(=O)N(Cc1ccccc1)c1nc2c(C)cccc2s1` here?
**A.** The Potency was inconclusive: 0.708 µM [inhibitor, partial curve, poor fit].

**Q.** With `CCO[C@H]1OC(C(=O)N2CCN(Cc3ccc4c(c3)OCO4)CC2)=C[C@@H](c2csc3ccccc23)[C@@H]1CCCO` as the molecule, how does the Potency read?
**A.** The Potency was inconclusive: 39.8 µM [inhibitor, single point].

**Q.** For `CCCCN(C)CCNC(=S)Nc1ccc2nc(N3CCN(CC)CC3)cc(C)c2c1`, which Potency is on record?
**A.** Its Potency is inconclusive: 26.7 µM [inhibitor, partial curve, poor fit].

**Q.** Which Potency does the source give for `CC(C)[C@H](NS(=O)(=O)c1cccc(Cl)c1)C(=O)OCC(=O)N1CCN(c2ccccc2)CC1` here?
**A.** The Potency was inconclusive: 17.8 µM [inhibitor, partial curve, poor fit].

**Q.** Which Potency does the source give for `CCOC(=O)c1c(SCCN2CCCCC2)n(-c2ccccc2)c(=S)n(-c2ccccc2)c1=O` here?
**A.** The Potency was active: 20 µM.

**Q.** Which Potency does the source give for `Cc1c(NC(=O)C(C)(C)Oc2ccc(Cl)cc2)cccc1-c1nc2ncccc2o1` here?
**A.** Its Potency is inconclusive: 22.4 µM [inhibitor, partial curve, poor fit].

**Q.** Which Potency does the source give for `Cc1ccc2nc(-c3cccc(Cl)c3)c(Cc3ccccc3)n2c1` here?
**A.** The Potency was inconclusive: 39.8 µM [inhibitor, single point].

**Q.** With `O=C(C1=C[C@@H](c2coc3ccccc3c2=O)C[C@@H](OCc2ccc(CO)cc2)O1)N1CCN(Cc2ccccc2)CC1` as the molecule, how does the Potency read?
**A.** The Potency was inconclusive: 25.1 µM [inhibitor, partial curve, poor fit].

**Q.** With `COCC(=O)OC/C(O)=C(\C#N)c1nc2ccccc2[nH]1` as the molecule, how does the Potency read?
**A.** The Potency was inconclusive: 22.4 µM [inhibitor, partial curve, poor fit].

**Q.** Which Potency does the source give for `Oc1c(Cl)cc(Cl)c(Cl)c1Cc1c(O)c(Cl)cc(Cl)c1Cl` here?
**A.** Its Potency is active: 28.2 µM and inconclusive: 28.2 µM [inhibitor, single point].

**Q.** For `N#C/C(=C\c1cccc([N+](=O)[O-])c1)C(=O)NCc1ccc(Cl)cc1`, which Potency is on record?
**A.** The Potency was active: 23.8 µM.

**Q.** Which Potency does the source give for `O=C(C[C@@H]1C[C@H]2c3cc(NC(=O)c4cccnc4)ccc3O[C@H]2[C@H](CO)O1)NCc1ccc(Oc2ccccc2)cc1` here?
**A.** Its Potency is inconclusive: 31.6 µM [inhibitor, single point].

**Q.** With `COc1ccc(-c2sc(Nc3ccccc3)n[n+]2C)c(C)c1C` as the molecule, how does the Potency read?
**A.** Its Potency is “inactive”.

**Q.** With `CCCCCCCCC(=O)N/N=C/c1ccccn1` as the molecule, how does the Potency read?
**A.** Its Potency is “inactive”.

**Q.** Which Potency does the source give for `CN(C(=O)c1cc2n(n1)C(C(F)(F)F)CC(c1ccco1)N2)c1ccccc1` (stereo not given) here?
**A.** The Potency was “inactive”.

**Q.** For `COc1ccc(NC(=O)c2c(NCc3sccc3C)sc3c2CCCCC3)c(OC)c1`, which Potency is on record?
**A.** Its Potency is inconclusive: 39.8 µM [inhibitor, partial curve, poor fit].

**Q.** For `O=C(NCc1cccnc1)/C(=C\c1ccc(-c2cccc(Cl)c2)o1)S(=O)(=O)c1ccccc1`, which Potency is on record?
**A.** The Potency was active: 25.1 µM.

**Q.** For `CC(Sc1cn(CCNC(=O)c2ccccc2F)c2ccccc12)c1ccccc1` (stereo not given), which Potency is on record?
**A.** The Potency was inconclusive: 25.1 µM [inhibitor, single point].

**Q.** Which Potency does the source give for `CCOC(=O)N/N=C\c1ccc([N+](=O)[O-])s1` here?
**A.** Its Potency is inconclusive: 16.8 µM [inhibitor, partial curve, poor fit].

**Q.** For `CC(=O)c1c(C)[nH]c(C(=O)OCC(=O)Nc2sc3c(c2C#N)CCCC3)c1C`, which Potency is on record?
**A.** Its Potency is inconclusive: 28.2 µM [inhibitor, partial curve, poor fit].

**Q.** For `C[C@H]1CNC(=O)c2c(C(=O)N3CCN(C(=O)OC(C)(C)C)CC3)ncn21`, which Potency is on record?
**A.** Its Potency is inconclusive: 39.8 µM [inhibitor, single point].

**Q.** For `CC(C)N1CCc2c(sc(NC(=O)c3ccc(S(=O)(=O)N4CCc5ccccc54)cc3)c2C(N)=O)C1`, which Potency is on record?
**A.** The Potency was inconclusive: 21.2 µM [inhibitor, single point].

**Q.** Which Potency does the source give for `CC(C)CNC(=O)C1(C)CCCCCN1Cc1ccccc1-c1ccccc1` (stereo not given) here?
**A.** Its Potency is inconclusive: 35.5 µM [inhibitor, partial curve, poor fit].

**Q.** With `COC(=O)[C@@]12CCCCN1[C@H](c1ccc(-c3cccc(Cl)c3)cc1)[C@H]1C(=O)N(C)C(=O)[C@H]12` as the molecule, how does the Potency read?
**A.** The Potency was inconclusive: 39.8 µM [inhibitor, partial curve, poor fit].

**Q.** For `CCc1nc(C)c(-c2ccccc2)c(=O)[nH]1`, which Potency is on record?
**A.** The Potency was “inactive”.

**Q.** For `COc1ccccc1-c1c(C)nn2c(N3CCCCCC3)cc(C)nc12`, which Potency is on record?
**A.** Its Potency is inconclusive: 22.4 µM [inhibitor, single point].

**Q.** For `CC(Oc1cccc(Br)c1)C(=O)NNC(=O)c1ccccn1` (stereo not given), which Potency is on record?
**A.** Its Potency is inconclusive: 14.1 µM [inhibitor, partial curve, poor fit].

**Q.** With `CCCCC[C@@H](C)N1C[C@@H](COCc2ccccc2)Oc2cc(N3CCC[C@H]3C(N)=O)ccc2S1(=O)=O` as the molecule, how does the Potency read?
**A.** The Potency was inconclusive: 35.5 µM [inhibitor, single point].

**Q.** Which Potency does the source give for `CCN1CCN(c2ccc(Nc3ccnc4ccccc34)cc2)CC1` here?
**A.** The Potency was inconclusive: 31.6 µM [inhibitor, single point].

**Q.** With `CC(C)Oc1ccc(CNC(=O)CC(c2ccccc2)c2cc(Cl)ccc2O)cc1` (stereo not given) as the molecule, how does the Potency read?
**A.** The Potency was inconclusive: 39.8 µM [inhibitor, single point].

**Q.** For `O=[N+]([O-])c1c(Nc2ccccc2O)ccc2nonc12`, which Potency is on record?
**A.** Its Potency is “inactive”.

**Q.** With `O=C(CSCc1ccc(Cl)cc1)Nc1ccccc1O` as the molecule, how does the Potency read?
**A.** Its Potency is “inactive”.

**Q.** For `CC1CCC(C(C)C)C(OC(=O)C[n+]2cccc(C(N)=O)c2)C1` (stereo not given), which Potency is on record?
**A.** The Potency was inconclusive: 28.2 µM [inhibitor, single point].

**Q.** For `Cn1c(/C=C/c2ccc([N+](=O)[O-])o2)nc2ccccc2c1=O`, which Potency is on record?
**A.** Its Potency is active: 7.94 µM.

**Q.** With `COc1ccc(-c2oc(=O)c3cc(OC)c(OC)cc3c2-c2ccc3c(c2)OCO3)cc1` as the molecule, how does the Potency read?
**A.** Its Potency is “inactive”.

**Q.** For `COc1ccc(CNCCC(c2ccccc2)c2ccc3c(c2)OCO3)cc1` (stereo not given), which Potency is on record?
**A.** Its Potency is inconclusive: 31.6 µM [inhibitor, single point] and active: 25.1 µM.

**Q.** For `CCCOc1ccc(-c2nc(=S)[nH][nH]2)cc1`, which Potency is on record?
**A.** Its Potency is “inactive”.

**Q.** With `CCOC(=O)c1c(NC(=O)c2cccs2)sc(C)c1CC` as the molecule, how does the Potency read?
**A.** Its Potency is “inactive”.

**Q.** For `CC1Cc2cc(S(=O)(=O)NCCc3ccccc3)ccc2N1C(=O)C1CCC1` (stereo not given), which Potency is on record?
**A.** The Potency was inconclusive: 1.58 µM [inhibitor, partial curve, poor fit].

**Q.** For `CC(C)c1ccc(/C=N/NC(=O)c2cc(-c3cccc([N+](=O)[O-])c3)n[nH]2)cc1`, which Potency is on record?
**A.** Its Potency is inconclusive: 26.7 µM [inhibitor, partial curve, poor fit].

**Q.** Which Potency does the source give for `CCC(=O)NC(c1ccc(C)cc1)c1cc([N+](=O)[O-])c2cccnc2c1O` (stereo not given) here?
**A.** The Potency was inconclusive: 28.2 µM [inhibitor, single point].

**Q.** For `COc1ccc2[nH]c(=O)c(-c3nnn(-c4ccccc4)n3)cc2c1`, which Potency is on record?
**A.** Its Potency is “inactive”.

**Q.** Which Potency does the source give for `Cc1nc2scc(C)n2c(=O)c1S(=O)(=O)N1CCN(c2cccc(C(F)(F)F)c2)CC1` here?
**A.** The Potency was inconclusive: 20 µM [inhibitor, single point].

Reference: PubChem BioAssay AID1745845 (National Center for Advancing Translational Sciences (NCATS), 2022)
